# Results published in the supplement of paper PMC8728848.
# This is one part of the list.
# B1: Epa1-NP-mutant-Y228A (Candida glabrata), Q6VBJ0 (protein)
# chain: MILNPALFLNKCVCIYTTLILLLLTNGGYATSSNDISLASKDPTTFPLGCSPDITTPKKGLSMELYSYDFRKKGSYPCWDAAYLDPNYPRTGYKSHRLLAKVDGVTGNINFYYHATKGCTPQLGHLPASYNYPKPLTMTNFTMLLYGYFRPKVTGFHTFTISADDLLFVNFGAGNAFDCCRRDSSADHFGNYQAYAIWGSKTAKDELTVHLDAGVYYPIRLFYNNREADGALSFTFKTESNENTVSDFSEYFFSLDDTEEGCPGLISYDSSCASVKTSKIIGIDYHTETPNENLVPITKTIYHLGIPCTGTTTTPLCGSGFYDPLANKCVTINTSSTSSVTKTTSHTTSKEVSFHSSISSQKTLIPKSIPSPYGPIKSQSIPTEMETSSEISSSEYAFSDVISTPSHSPYTKKHSSLNSSSYTSTVIHSLTSYSISQGIFSTSLSEQNITSKSSTDKFSTATSMSNNITQSSIIISQFSTNNENYTTTSMHTSSDKISTETLNNSISTTTSILFSNSSTILKNNTTIISSDKDTHYHPVNPTIVCSTNKTEIICASITQPSISNSNNHWSSSVLKFNSTTVRSTLPSSAGSNETSINVPFSSSTESNTSTSSTSTSNSKMVRSTLPSSAGSNETSISVPFSSSTESNTSTSSTSTSNSKMVRSTLPSSAGSNETSINVPFSSSTESNTSTSSTSTSNSKTVRSTPFSSAGIIMTSLSQRNNKSASSYASSNSKCYNTADSCRKVHSTPSYLLTSSYTSEGVDYDCSLVSTKLKINDTNCVNNKHTTKSCLKTSVTTTIPTLEIKTARKSSSNTIGLHSYPTSSPNKSISSAPIIGYISSFKTIKTASPSYQTSDLTTITTITSLNNPGSTAVENTHESNDKSRKTSSNDISSKHSVIKETKDAVESSNKSHQTNTLKCSSIIIASSSHNSYESLGGTTLTLTLSKVYSPQNNDTLPFLEISEVNPSRTVLPESSKMMQYLTSTEERNKTARNTIATNIVSISTFHFEGEGNAIRMGYTQLLLMLIGIIVMNIGT
# What was measured:
# Assay in all cases: glycan array binding signal (z-score within array); higher = stronger binding
# Conditions in all cases: glycan notation: IUPAC condensed, linker removed; mutation: Y228A
# Gal(a1-3)Gal(b1-4)GlcNAc = target: Gal(a1-3)Gal(b1-4)GlcNAc
# Method in brief: (§1)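 The binding signal is a Z-score computed within each array and averaged over linkers. Arrays of the same protein sequence at different concentrations or buffers were also averaged together. Data originate from 3228 arrays in the Consortium for Functional Glycomics database, kept only where the protein sequence was available.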
# [1] = target: Gal(a1-3)Gal(b1-4)GlcNAc(b1-2)Man
# Method in brief: as §1
# [2] = target: Gal(a1-3)Gal(b1-4)GlcNAc(b1-2)Man(a1-3)[Gal(a1-3)Gal(b1-4)GlcNAc(b1-2)Man(a1-6)]Man(b1-4)GlcNAc(b1-4)GlcNAc
# Method in brief: as §1
# [3] = target: Gal(a1-3)Gal(b1-4)GlcNAc(b1-3)GalNAc
# Method in brief: as §1
# [4] = target: Gal(a1-3)Gal(b1-4)GlcNAc(b1-6)GalNAc
# Method in brief: as §1
# [5] = target: Gal(a1-3)Gal(b1-4)[Fuc(a1-3)]GlcNAc
# Method in brief: as §1
# [6] = target: Gal(a1-3)Gal(b1-4)[Fuc(a1-3)]GlcNAc(b1-2)Man(a1-3)[Gal(a1-3)Gal(b1-4)[Fuc(a1-3)]GlcNAc(b1-2)Man(a1-6)]Man(b1-4)GlcNAc(b1-4)GlcNAc
# Method in brief: as §1
# Gal(a1-3)GalNAc = target: Gal(a1-3)GalNAc
# Method in brief: as §1
# [7] = target: Gal(a1-3)[Gal(a1-4)]Gal(b1-4)GlcNAc
# Method in brief: as §1
# [8] = target: Gal(a1-4)Gal(b1-3)GlcNAc(b1-2)Man(a1-3)[Gal(a1-4)Gal(b1-3)GlcNAc(b1-2)Man(a1-6)]Man(b1-4)GlcNAc(b1-4)GlcNAc
# Method in brief: as §1
# Gal(a1-4)Gal(b1-4)Glc = target: Gal(a1-4)Gal(b1-4)Glc
# Method in brief: as §1
# Gal(a1-4)Gal(b1-4)GlcNAc = target: Gal(a1-4)Gal(b1-4)GlcNAc
# Method in brief: as §1
# [9] = target: Gal(a1-4)Gal(b1-4)GlcNAc(b1-2)Man(a1-3)[Gal(a1-4)Gal(b1-4)GlcNAc(b1-2)Man(a1-6)]Man(b1-4)GlcNAc(b1-4)GlcNAc
# Method in brief: as §1
# [10] = target: Gal(a1-4)Gal(b1-4)GlcNAc(b1-3)Gal(b1-4)Glc
# Method in brief: as §1
# Gal(a1-4)GlcNAc = target: Gal(a1-4)GlcNAc
# Method in brief: as §1
# Gal(a1-6)Glc = target: Gal(a1-6)Glc
# Method in brief: as §1
# Gal(b1-2)Gal = target: Gal(b1-2)Gal
# Method in brief: as §1
# Gal(b1-3)Gal = target: Gal(b1-3)Gal
# Method in brief: as §1
# Gal(b1-3)Gal(b1-4)GlcNAc = target: Gal(b1-3)Gal(b1-4)GlcNAc
# Method in brief: as §1
# Gal(b1-3)GalNAc = target: Gal(b1-3)GalNAc
# Method in brief: as §1
# [11] = target: Gal(b1-3)GalNAc(a1-3)[Fuc(a1-2)]Gal(b1-4)Glc
# Method in brief: as §1
# [12] = target: Gal(b1-3)GalNAc(a1-3)[Fuc(a1-2)]Gal(b1-4)GlcNAc
# Method in brief: as §1
# Gal(b1-3)GalNAc(b1-3)Gal = target: Gal(b1-3)GalNAc(b1-3)Gal
# Method in brief: as §1
# [13] = target: Gal(b1-3)GalNAc(b1-3)Gal(a1-4)Gal(b1-4)Glc
# Method in brief: as §1
# [14] = target: Gal(b1-3)GalNAc(b1-4)Gal(b1-4)Glc
# Method in brief: as §1
# [15] = target: Gal(b1-3)GalNAc(b1-4)[Neu5Ac(a2-3)]Gal(b1-4)Glc
# Method in brief: as §1
# Gal(b1-3)GlcNAc = target: Gal(b1-3)GlcNAc
# Method in brief: as §1
# [16] = target: Gal(b1-3)GlcNAc(a1-3)Gal(b1-4)GlcNAc
# Method in brief: as §1
# [17] = target: Gal(b1-3)GlcNAc(a1-6)Gal(b1-4)GlcNAc
# Method in brief: as §1
# Gal(b1-3)GlcNAc(b1-2)Man = target: Gal(b1-3)GlcNAc(b1-2)Man
# Method in brief: as §1
binder,measurement,setting,value
B1,glycan array binding signal (z-score),Gal(a1-3)Gal(b1-4)GlcNAc,-0.218
same,glycan array binding signal (z-score),[1],-0.233
same,glycan array binding signal (z-score),[2],-0.232
same,glycan array binding signal (z-score),[3],-0.245
same,glycan array binding signal (z-score),[4],-0.214
same,glycan array binding signal (z-score),[5],-0.158
same,glycan array binding signal (z-score),[6],-0.038
same,glycan array binding signal (z-score),Gal(a1-3)GalNAc,-0.151
same,glycan array binding signal (z-score),[7],-0.262
same,glycan array binding signal (z-score),[8],0.117
same,glycan array binding signal (z-score),Gal(a1-4)Gal(b1-4)Glc,-0.242
same,glycan array binding signal (z-score),Gal(a1-4)Gal(b1-4)GlcNAc,0.017
same,glycan array binding signal (z-score),[9],0.054
same,glycan array binding signal (z-score),[10],0.014
same,glycan array binding signal (z-score),Gal(a1-4)GlcNAc,1.7
same,glycan array binding signal (z-score),Gal(a1-6)Glc,-0.147
same,glycan array binding signal (z-score),Gal(b1-2)Gal,-0.062
same,glycan array binding signal (z-score),Gal(b1-3)Gal,11.6
same,glycan array binding signal (z-score),Gal(b1-3)Gal(b1-4)GlcNAc,10.2
same,glycan array binding signal (z-score),Gal(b1-3)GalNAc,0.27
same,glycan array binding signal (z-score),[11],0.088
same,glycan array binding signal (z-score),[12],0.52
same,glycan array binding signal (z-score),Gal(b1-3)GalNAc(b1-3)Gal,0.184
same,glycan array binding signal (z-score),[13],-0.045
same,glycan array binding signal (z-score),[14],1.84
same,glycan array binding signal (z-score),[15],0.268
same,glycan array binding signal (z-score),Gal(b1-3)GlcNAc,0.919
same,glycan array binding signal (z-score),[16],-0.17
same,glycan array binding signal (z-score),[17],-0.119
same,glycan array binding signal (z-score),Gal(b1-3)GlcNAc(b1-2)Man,3.19
